# According to the supplement of paper PMC8728848:
# Some of the results follow.
# B1: Arath Fbox (Arabidopsis thaliana), NP_178341.1 (protein)
# chain: EFTWGRKRRVKSESSPFDSFPEDCISYIISFTNPRDACVAATVSKTFESTVKSDIIWEKFLPADYESLIPPSRVFSSKKELYFSLCNDPVLFDDDKKSVWLEKASGKRCLMLSAMNLSIIWGDNPQYWQWIPIPESRFEKVAKLRDVCWFEIRGRTNTRVLSPRTRYSAYIVFKGVDKCYGFQNVAIEAAVGVVGQEPSRRLICFSEAIRRGRRNVVKPKQREDGWMEIELGEFFNDGGIMDNDEIEMSALETKQLNRKCGLIIQGIEIRPAKILAAAAASFLEQKLISEEDLNSAVDHHHHHH
# What was measured:
# Assay in all cases: glycan array binding signal (z-score within array); higher = stronger binding
# Settings in all cases: glycan notation: IUPAC condensed, linker removed
# [1] = target: Gal(b1-4)GlcNAc(b1-3)Gal(b1-4)GlcNAc(b1-3)[Gal(b1-4)GlcNAc(b1-3)Gal(b1-4)GlcNAc(b1-6)]GalNAc
# Outline: (§1)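 From the Consortium for Functional Glycomics database, 3228 arrays were curated, keeping only those whose protein sequence was available. Binding is given as a within-array Z-score averaged across arrays sharing a protein sequence and across linkers. Negative Z-scores can be read as non-binding.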
# [2] = target: Gal(b1-4)GlcNAc(b1-3)Gal(b1-4)GlcNAc(b1-6)[Gal(b1-3)]GalNAc
# Outline: as §1
# [3] = target: Gal(b1-4)GlcNAc(b1-3)Gal(b1-4)[Fuc(a1-3)]GlcNAc(b1-3)Gal(b1-4)[Fuc(a1-3)]GlcNAc
# Outline: as §1
# [4] = target: Gal(b1-4)GlcNAc(b1-3)GalNAc
# Outline: as §1
# [5] = target: Gal(b1-4)GlcNAc(b1-3)[Fuc(a1-3)GlcNAc(b1-6)]Gal(b1-4)Glc
# Outline: as §1
# [6] = target: Gal(b1-4)GlcNAc(b1-3)[Gal(b1-4)GlcNAc(b1-6)]Gal(b1-4)GlcNAc
# Outline: as §1
# [7] = target: Gal(b1-4)GlcNAc(b1-3)[GlcNAc(b1-6)]Gal(b1-4)GlcNAc
# Outline: as §1
# [8] = target: Gal(b1-4)GlcNAc(b1-6)Gal(b1-4)GlcNAc
# Outline: as §1
# [9] = target: Gal(b1-4)GlcNAc(b1-6)GalNAc
# Outline: as §1
# [10] = target: Gal(b1-4)GlcNAc(b1-6)[Gal(b1-3)]GalNAc
# Outline: as §1
# [11] = target: Gal(b1-4)GlcNAc(b1-6)[Gal(b1-4)GlcNAc(b1-3)]GalNAc
# Outline: as §1
# Gal(b1-4)GlcNAc6P = target: Gal(b1-4)GlcNAc6P
# Outline: as §1
# Gal(b1-6)Gal = target: Gal(b1-6)Gal
# Outline: as §1
# Gal3S(b1-3)GalNAc = target: Gal3S(b1-3)GalNAc
# Outline: as §1
# Gal3S(b1-3)GlcNAc = target: Gal3S(b1-3)GlcNAc
# Outline: as §1
# [12] = target: Gal3S(b1-3)[Fuc(a1-4)]GlcNAc
# Outline: as §1
# Gal3S(b1-4)Glc = target: Gal3S(b1-4)Glc
# Outline: as §1
# Gal3S(b1-4)Glc6S = target: Gal3S(b1-4)Glc6S
# Outline: as §1
# Gal3S(b1-4)GlcNAc = target: Gal3S(b1-4)GlcNAc
# Outline: as §1
# [13] = target: Gal3S(b1-4)[Fuc(a1-3)]Glc6S
# Outline: as §1
# [14] = target: Gal3S(b1-4)[Fuc(a1-3)]GlcNAc
# Outline: as §1
# [15] = target: Gal3S(b1-4)[Fuc(a1-3)]GlcNAc6S
# Outline: as §1
# Gal3S4S(b1-4)GlcNAc = target: Gal3S4S(b1-4)GlcNAc
# Outline: as §1
# Gal3S6S(b1-4)GlcNAc = target: Gal3S6S(b1-4)GlcNAc
# Outline: as §1
# Gal3S6S(b1-4)GlcNAc6S = target: Gal3S6S(b1-4)GlcNAc6S
# Outline: as §1
# Gal4S(b1-4)GlcNAc = target: Gal4S(b1-4)GlcNAc
# Outline: as §1
# Gal4S6S(b1-4)GlcNAc = target: Gal4S6S(b1-4)GlcNAc
# Outline: as §1
# Gal6P(b1-4)GlcNAc = target: Gal6P(b1-4)GlcNAc
# Outline: as §1
# Gal6S(b1-3)GlcNAc = target: Gal6S(b1-3)GlcNAc
# Outline: as §1
# Gal6S(b1-3)GlcNAc6S = target: Gal6S(b1-3)GlcNAc6S
# Outline: as §1
# Gal6S(b1-4)Glc = target: Gal6S(b1-4)Glc
# Outline: as §1
# Gal6S(b1-4)Glc6S = target: Gal6S(b1-4)Glc6S
# Outline: as §1
# Gal6S(b1-4)GlcNAc = target: Gal6S(b1-4)GlcNAc
# Outline: as §1
# Gal6S(b1-4)GlcNAc6S = target: Gal6S(b1-4)GlcNAc6S
# Outline: as §1
# GalNAc(a1-3)Gal = target: GalNAc(a1-3)Gal
# Outline: as §1
# GalNAc(a1-3)GalNAc = target: GalNAc(a1-3)GalNAc
# Outline: as §1
# [16] = target: GalNAc(a1-3)GalNAc(b1-3)Gal(a1-4)Gal(b1-4)Glc
# Outline: as §1
binder,measurement,setting,value
B1,glycan array binding signal (z-score),[1],0.03
same,glycan array binding signal (z-score),[2],1.43
same,glycan array binding signal (z-score),[3],0.11
same,glycan array binding signal (z-score),[4],0.835
same,glycan array binding signal (z-score),[5],0.144
same,glycan array binding signal (z-score),[6],-0.617
same,glycan array binding signal (z-score),[7],-0.685
same,glycan array binding signal (z-score),[8],-0.234
same,glycan array binding signal (z-score),[9],0.205
same,glycan array binding signal (z-score),[10],0.811
same,glycan array binding signal (z-score),[11],0.527
same,glycan array binding signal (z-score),Gal(b1-4)GlcNAc6P,-0.459
same,glycan array binding signal (z-score),Gal(b1-6)Gal,-0.2
same,glycan array binding signal (z-score),Gal3S(b1-3)GalNAc,0.065
same,glycan array binding signal (z-score),Gal3S(b1-3)GlcNAc,-0.427
same,glycan array binding signal (z-score),[12],-0.228
same,glycan array binding signal (z-score),Gal3S(b1-4)Glc,1
same,glycan array binding signal (z-score),Gal3S(b1-4)Glc6S,0.422
same,glycan array binding signal (z-score),Gal3S(b1-4)GlcNAc,0.801
same,glycan array binding signal (z-score),[13],-0.156
same,glycan array binding signal (z-score),[14],-0.48
same,glycan array binding signal (z-score),[15],2.7
same,glycan array binding signal (z-score),Gal3S4S(b1-4)GlcNAc,-0.115
same,glycan array binding signal (z-score),Gal3S6S(b1-4)GlcNAc,0.568
same,glycan array binding signal (z-score),Gal3S6S(b1-4)GlcNAc6S,0.933
same,glycan array binding signal (z-score),Gal4S(b1-4)GlcNAc,-0.599
same,glycan array binding signal (z-score),Gal4S6S(b1-4)GlcNAc,-0.197
same,glycan array binding signal (z-score),Gal6P(b1-4)GlcNAc,-0.718
same,glycan array binding signal (z-score),Gal6S(b1-3)GlcNAc,1.69
same,glycan array binding signal (z-score),Gal6S(b1-3)GlcNAc6S,-0.526
same,glycan array binding signal (z-score),Gal6S(b1-4)Glc,1.6
same,glycan array binding signal (z-score),Gal6S(b1-4)Glc6S,0.908
same,glycan array binding signal (z-score),Gal6S(b1-4)GlcNAc,-0.16
same,glycan array binding signal (z-score),Gal6S(b1-4)GlcNAc6S,-0.365
same,glycan array binding signal (z-score),GalNAc(a1-3)Gal,-0.136
same,glycan array binding signal (z-score),GalNAc(a1-3)GalNAc,0.128
same,glycan array binding signal (z-score),[16],-0.638
